# Measured values from the supplement of paper PMC11417369.
# ± gives the standard deviation of the averaged measurements. The list shows a part of the results.
# Test system: PfAP2-EXP AP2 domain (GST-tagged)
# Test: gcPBM binding intensity (ln(normalized median fluorescence intensity)); higher = stronger DNA binding
# In short: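 GST-tagged P. falciparum DNA-binding domains produced in E. coli were incubated for 1 h on an Agilent 4 × 180k array of primer-extended double-stranded 36-bp intergenic genomic probes with negative controls. Binding intensity is the highest Masliner-normalised natural-log median intensity across replicate spots of either probe orientation, with bound protein detected by Alexa488 anti-GST antibody at 488 nm.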
row,Sequence,gcPBM binding intensity (ln)
1,TAATCATAAAAAAATACACACATATATAATATATAT [CACACA_site1983],8.51 ± 0.3
2,ATACAAAATCTAATTTGTACACAATGTTTGATTTTT [XGTACX_site5438],8.34 ± 0.54
3,ATATAACATGGACACACACACATATATATATATTAT [CACACA_site6135],8.75 ± 0.42
4,ATACAAATTAAGCCTCAAGTTCTTTTTTTTAACATA [XGTACX_negctrl_site580],8.21 ± 0.4
5,GGTGCACCCATATACACACACAAATACAATGATAAA [CACACA_site1132],8.88 ± 0.19
6,GTGAAATTATATTTTTGTACATATATTATATATTAT [XGTACX_site3387],8.52 ± 0.32
7,AAAAAAAAGAATTATTGTACAAAAGAACAATAAATA [XGTACX_site1368],8.42 ± 0.4
8,ATCGAAGGGGTACAAAATAAAAATAATTCTTTCAAA [TGCATGCA_negctrl_site373],8.51 ± 0.47
9,GTATATATCTAAAAATATATATATATATATATATAT [CACACA_negctrl_site788],10.1 ± 0.4
10,TATAAATAAATATGGAGTACCAAAAAAATTATAAAA [XGTACX_site7581],8.6 ± 0.33
11,AAGTGTTATGAAATATGTACACATATATTATATATA [XGTACX_site6022],8.51 ± 0.23
12,TTTTTATTAAATAAAGCACACACAACAACTTTTCAC [CACACA_site9372],8.94 ± 0.36
13,AAATATAAAAAAAAAAGTACTTTGTTACTTTTCTAT [XGTACX_site6034],8.04 ± 0.36
14,AACTGCAAAAAAAGACGTACAAATTATTAATTGCAA [XGTACX_site8929],8.7 ± 0.53
15,AAAATAAATATAACCACACACGAAAGAGAGAGAAAA [CACACA_site3272],8.88 ± 0.46
16,TAACCATAAGAAGATTGTACATAATAAAAGTATTCT [XGTACX_site1117],8.64 ± 0.58
17,ATTTAAAATGGTTATACACACATAAAAGGGGAAATG [CACACA_site2649],8.95 ± 0.57
18,ATATATATATATATATGTACATACCCAATTGTGTAA [XGTACX_site6352],10.1 ± 0.59
19,TACAGACATACATACACACATACATATATATATATA [CACACA_site1940],10.1 ± 0.11

row,Sequence,gcPBM binding intensity (ln)
1,CATAAAAATGAACATACACACATATATATATATATA [CACACA_site2498],10.1 ± 0.43
2,TTGCTTTCTTTTTTTTGTACTCATATCTACTATCAT [XGTACX_site7711],9.04 ± 0.46
3,CGAGCAAGACGGGGTGCACACAAACTAATATGCCGA [CACACA_site7936],9.85 ± 0.97
4,ATTATTATGTAGAAGGTGCTATGTTCTATAAATATA [GTGCAC_site9545],8.42 ± 0.24
5,TACCTTTATTAATAAAGTACATTAATCTGTGTATAC [XGTACX_site8720],8.46 ± 0.36
6,TTTTTGTTAAAATAAATATTATAAATATATTAATAT [TGCATGCA_negctrl_site239],7.92 ± 0.27
7,TACATATTTTATAGCACACAAATAATAATATGTAGT [CACACA_site688],8.68 ± 0.31
8,AAAAAAAAAAAAATGTGGACACAATTGTGTGTTTGT [XGTACX_site3563],9.18 ± 0.8
9,GTTGTGGAAAGAAGTTGTACATAAAATATTATATAA [XGTACX_site4352],8.63 ± 0.42
10,AGGCCTTTTAGTATTTCACACACGTAAATGCGTATA [CACACA_site1108],8.49 ± 0.41
11,TTTTTTCTTTTTTTTTTTAATTATAAACATGATATT [GTGCAC_negctrl_site144],8.26 ± 0.47
12,TAAATATATATAACATGTACATAAAATATATATATA [XGTACX_site4431],9.53 ± 0.13
13,TATCTTCATTGTTGACGTACAGTATTTCTAAACGTT [XGTACX_site3439],8.82 ± 0.31
14,CTATGAACACACACATGTACATATATTAACTCGCTA [XGTACX_site8805],8.57 ± 0.31
15,CCACTTGTGTAATGTTGTACAAAAATAAATATATTT [XGTACX_site4598],8.6 ± 0.4
16,ATAATTAAAAATAATATATATATAATATGATATTAT [GTGCAC_negctrl_site194],8.09 ± 0.35
17,TACACATACAGACATACACACATACACATATACACA [CACACA_site6918],8.66 ± 0.38
18,AAAAAAAAAAAAAACACACACACACGCACATATACA [CACACA_site7288],8.71 ± 0.47
19,TATATTAAACAATATACACACATTAATGTAGACATA [CACACA_site8889],8.68 ± 0.47

row,Sequence,gcPBM binding intensity (ln)
1,TTATAATATATATCTGCATGTTGCTTTGGGGCTTTA [TGCATGCA_site712],9.29 ± 0.64
2,GAAAATTCTTAAGGCACACACATATAAGATATATAC [CACACA_site6410],8.7 ± 0.28
3,TTTCAGACAAAAAAAAAAAAAAAAAAGAGGAGAATA [CACACA_negctrl_site254],8.29 ± 0.58
4,TTTAAGCAAAGACACACACACATATTTATATTTATA [CACACA_site6295],8.46 ± 0.42
5,AAACATTTATACAAAGCACACAATTTTTAACTTTTA [CACACA_site2627],8.25 ± 0.34
6,AACCTTTTAAGAGTTGCACACGTACAAAAAAAAAAA [CACACA_site9159],8.63 ± 0.36
7,AATAAAAAAAAAAAAAAAAAAAAAAACCTGAGGAGT [CACACA_negctrl_site1140],8.21 ± 0.71
8,TTATTCATAAAAACAAAAAACAAAAATGAAATAGGA [CACACA_negctrl_site1123],8.77 ± 0.56
9,TATGATATAATATACACACATACATATATATATATA [CACACA_site510],9.96 ± 0.42
10,AGAGTTCTCCTATGCACACAAAAAACTTTCATTTAT [CACACA_site4193],8.46 ± 0.25
11,TTAATATTTTATTTCACACACATAAATGCCCCAAAC [CACACA_site1887],9.14 ± 0.34
12,TATTATGTCTAAAATAACATATTAATATATTATTTC [CACACA_negctrl_site285],8.23 ± 0.38
13,AAATAATTTTTATTTGTACACACATACATATATATT [CACACA_site8240],8.46 ± 0.28
14,TAAATAAAGATATATACACACATATTTATATTTATA [CACACA_site6431],8.1 ± 0.38
15,CATCATATAAATTCAAGTACAAGAAAAAGTAATATA [XGTACX_site2383],8.69 ± 0.45
16,ATATCTACTTTTTTATGTACGAAAAAAATACGGATT [XGTACX_site8937],8.65 ± 0.6
17,ACAAAATTGAAATTCACACAAAAACTATACTTTTTA [CACACA_site4638],8.05 ± 0.47
18,TTTTTTTTTTTTTTTGTGCACAATATAATTTTTAAT [GTGCAC_site9747],8.755 ± 0.021
